Experimental data from the supplement of paper PMC8728848.
The other results are listed elsewhere or left out.

Tests used:
Assay in all cases: glycan array binding signal (z-score within array); higher = stronger binding
Conditions in all cases: glycan notation: IUPAC condensed, linker removed
[1] = molecular target: Fuc(a1-2)Gal
Summary of the method: (§1)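 Arrays were curated from the Consortium for Functional Glycomics database, 3228 in total, and kept only where the protein sequence was available. Binding is expressed as a within-array Z-score. This score was averaged across arrays of the same protein sequence at different concentrations or buffers and across linkers, and negative values can be read as non-binding.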

[2] = molecular target: Fuc(a1-2)Gal(b1-3)GalNAc
Summary of the method: as §1

[3] = molecular target: Fuc(a1-2)Gal(b1-3)GalNAc(a1-3)[Fuc(a1-2)]Gal(b1-4)Glc
Summary of the method: as §1

[4] = molecular target: Fuc(a1-2)Gal(b1-3)GalNAc(a1-3)[Fuc(a1-2)]Gal(b1-4)GlcNAc
Summary of the method: as §1

[5] = molecular target: Fuc(a1-2)Gal(b1-3)GalNAc(b1-3)Gal
Summary of the method: as §1

[6] = molecular target: Fuc(a1-2)Gal(b1-3)GalNAc(b1-3)Gal(a1-4)Gal(b1-4)Glc
Summary of the method: as §1

[7] = molecular target: Fuc(a1-2)Gal(b1-3)GalNAc(b1-4)[Neu5Ac(a2-3)]Gal(b1-4)Glc
Summary of the method: as §1

[8] = molecular target: Fuc(a1-2)Gal(b1-3)GlcNAc
Summary of the method: as §1

[9] = molecular target: Fuc(a1-2)Gal(b1-3)GlcNAc(b1-2)Man(a1-3)[Fuc(a1-2)Gal(b1-3)GlcNAc(b1-2)Man(a1-6)]Man(b1-4)GlcNAc(b1-4)GlcNAc
Summary of the method: as §1

[10] = molecular target: Fuc(a1-2)Gal(b1-3)GlcNAc(b1-2)Man(a1-3)[Fuc(a1-2)Gal(b1-3)GlcNAc(b1-2)Man(a1-6)]Man(b1-4)GlcNAc(b1-4)[Fuc(a1-6)]GlcNAc
Summary of the method: as §1

[11] = molecular target: Fuc(a1-2)Gal(b1-3)GlcNAc(b1-3)Gal(b1-4)Glc
Summary of the method: as §1

[12] = molecular target: Fuc(a1-2)Gal(b1-3)GlcNAc(b1-3)GalNAc
Summary of the method: as §1

[13] = molecular target: Fuc(a1-2)Gal(b1-3)GlcNAc(b1-3)[Fuc(a1-3)[Gal(b1-4)]GlcNAc(b1-6)]Gal(b1-4)Glc
Summary of the method: as §1

[14] = molecular target: Fuc(a1-2)Gal(b1-3)GlcNAc(b1-3)[Gal(b1-4)GlcNAc(b1-6)]Gal(b1-4)Glc
Summary of the method: as §1

[15] = molecular target: Fuc(a1-2)Gal(b1-3)GlcNAc(b1-3)[Neu5Ac(a2-6)Gal(b1-4)GlcNAc(b1-6)]Gal(b1-4)Glc
Summary of the method: as §1

[16] = molecular target: Fuc(a1-2)Gal(b1-3)[Fuc(a1-4)]GlcNAc
Summary of the method: as §1

[17] = molecular target: Fuc(a1-2)Gal(b1-3)[Fuc(a1-4)]GlcNAc(b1-2)Man(a1-3)[Fuc(a1-2)Gal(b1-3)[Fuc(a1-4)]GlcNAc(b1-2)Man(a1-6)]Man(b1-4)GlcNAc(b1-4)GlcNAc
Summary of the method: as §1

[18] = molecular target: Fuc(a1-2)Gal(b1-3)[Fuc(a1-4)]GlcNAc(b1-3)[Fuc(a1-3)[Gal(b1-4)]GlcNAc(b1-6)]Gal(b1-4)Glc
Summary of the method: as §1

[19] = molecular target: Fuc(a1-2)Gal(b1-3)[Fuc(a1-4)]GlcNAc(b1-3)[Gal(b1-4)GlcNAc(b1-6)]Gal(b1-4)Glc
Summary of the method: as §1

[20] = molecular target: Fuc(a1-2)Gal(b1-4)Glc
Summary of the method: as §1

[21] = molecular target: Fuc(a1-2)Gal(b1-4)Glc6S
Summary of the method: as §1

[22] = molecular target: Fuc(a1-2)Gal(b1-4)GlcNAc
Summary of the method: as §1

[23] = molecular target: Fuc(a1-2)Gal(b1-4)GlcNAc(b1-2)Man(a1-3)[Fuc(a1-2)Gal(b1-4)GlcNAc(b1-2)Man(a1-6)]Man(b1-4)GlcNAc(b1-4)GlcNAc
Summary of the method: as §1

[24] = molecular target: Fuc(a1-2)Gal(b1-4)GlcNAc(b1-2)Man(a1-3)[Fuc(a1-2)Gal(b1-4)GlcNAc(b1-2)Man(a1-6)]Man(b1-4)GlcNAc(b1-4)[Fuc(a1-6)]GlcNAc
Summary of the method: as §1

[25] = molecular target: Fuc(a1-2)Gal(b1-4)GlcNAc(b1-2)[Fuc(a1-2)Gal(b1-4)GlcNAc(b1-4)]Man(a1-3)[Fuc(a1-2)Gal(b1-4)GlcNAc(b1-2)Man(a1-6)]Man(b1-4)GlcNAc(b1-4)GlcNAc
Summary of the method: as §1

[26] = molecular target: Fuc(a1-2)Gal(b1-4)GlcNAc(b1-3)Gal(b1-4)GlcNAc
Summary of the method: as §1

[27] = molecular target: Fuc(a1-2)Gal(b1-4)GlcNAc(b1-3)Gal(b1-4)GlcNAc(b1-3)Gal(b1-4)GlcNAc
Summary of the method: as §1

[28] = molecular target: Fuc(a1-2)Gal(b1-4)GlcNAc(b1-3)GalNAc
Summary of the method: as §1

[29] = molecular target: Fuc(a1-2)Gal(b1-4)GlcNAc(b1-3)[Fuc(a1-2)Gal(b1-4)GlcNAc(b1-6)]GalNAc
Summary of the method: as §1

[30] = molecular target: Fuc(a1-2)Gal(b1-4)GlcNAc6S
Summary of the method: as §1

B1: Gz-CVNH (Gibberella zeae) (protein)
chain: MGSSHHHHHHSSGLVPRGSHMGNFHESSNNIWLEDGHILHAECGNGEGDYVESTLDLDYYIGNDDGSFSWGGENFSGSASNITLDIEGDDNIPVLRAELNPMDGDPVEANVNLSERIGNDCGTLIFLA
- glycan array binding signal (z-score) [1]: -0.121
- glycan array binding signal (z-score) [2]: -0.139
- glycan array binding signal (z-score) [3]: -0.063
- glycan array binding signal (z-score) [4]: -0.156
- glycan array binding signal (z-score) [5]: 0.034
- glycan array binding signal (z-score) [6]: -0.15
- glycan array binding signal (z-score) [7]: -0.122
- glycan array binding signal (z-score) [8]: -0.131
- glycan array binding signal (z-score) [9]: -0.072
- glycan array binding signal (z-score) [10]: -0.109
- glycan array binding signal (z-score) [11]: -0.135
- glycan array binding signal (z-score) [12]: -0.133
- glycan array binding signal (z-score) [13]: -0.161
- glycan array binding signal (z-score) [14]: -0.144
- glycan array binding signal (z-score) [15]: -0.05
- glycan array binding signal (z-score) [16]: -0.141
- glycan array binding signal (z-score) [17]: 0.062
- glycan array binding signal (z-score) [18]: -0.125
- glycan array binding signal (z-score) [19]: -0.136
- glycan array binding signal (z-score) [20]: -0.154
- glycan array binding signal (z-score) [21]: -0.096
- glycan array binding signal (z-score) [22]: -0.133
- glycan array binding signal (z-score) [23]: -0.117
- glycan array binding signal (z-score) [24]: -0.105
- glycan array binding signal (z-score) [25]: -0.106
- glycan array binding signal (z-score) [26]: -0.155
- glycan array binding signal (z-score) [27]: -0.164
- glycan array binding signal (z-score) [28]: -0.109
- glycan array binding signal (z-score) [29]: -0.095
- glycan array binding signal (z-score) [30]: -0.157
